IC50 is the fitted dose that halves viability relative to control wells, and lower means more sensitive; a limit (>, <) means that the fit lies beyond the doses tested. AUC, from the same fit, is the share of area under the viability curve across the 256-fold dose range; it is 1 without any effect and falls as sensitivity rises. For some of these results: An inferred top dose is not printed in the source and was worked back from the curve model.
How the values were obtained:
Assay in all cases: Viability of human cancer cell lines after 72 h of drug (GDSC screen)
FH535 = compound: Cc1cc([N+](=O)[O-])ccc1NS(=O)(=O)c1cc(Cl)ccc1Cl [FH535]; conditions: top dose 32 µM; top dose inferred
Method: (§1)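 Human cancer cell lines in 384-well plates, medium with 10% serum, drug for 72 h over a 256-fold dose range (nine 2-fold or five 4-fold steps up to the top dose). Adherent lines were fixed and stained with the nucleic acid dye Syto60, suspension lines read with resazurin; signal relative to control wells, capped at 0 and 100%. One two-parameter sigmoid per drug and line, fitted in a mixed model over all curves with the slope shared within a line.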

AT-7519 = compound: O=C(NC1CCNCC1)c1n[nH]cc1NC(=O)c1c(Cl)cccc1Cl [AT-7519]; conditions: top dose 10.24 µM; top dose inferred
Method: as §1

Sorafenib = compound: CNC(=O)c1cc(Oc2ccc(NC(=O)Nc3ccc(Cl)c(C(F)(F)F)c3)cc2)ccn1 [Sorafenib]; conditions: top dose 4 µM
Method: as §1

A-443654 = compound: Cc1n[nH]c2ccc(-c3cncc(OC[C@@H](N)Cc4c[nH]c5ccccc45)c3)cc12 [A-443654]; conditions: top dose 1.024 µM; top dose inferred
Method: as §1

XMD14-99 = compound: COc1cc(N2CCN(C)CC2)ccc1Nc1nc(N)c(C(=O)c2c(Cl)cccc2Cl)s1 [XMD14-99]; conditions: top dose 10.24 µM; top dose inferred
Method: as §1

Dasatinib = compound: Cc1nc(Nc2ncc(C(=O)Nc3c(C)cccc3Cl)s2)cc(N2CCN(CCO)CC2)n1 [Dasatinib]; conditions: top dose 1.28 µM
Method: as §1

Cell Line | AUC (FH535) | IC50 (FH535) | AUC (AT-7519) | IC50 (AT-7519) | AUC (Sorafenib) | IC50 (Sorafenib) | AUC (A-443654) | IC50 (A-443654) | AUC (XMD14-99) | IC50 (XMD14-99) | AUC (Dasatinib) | IC50 (Dasatinib)
A4-Fuk (B-cell lymphoma, suspension) | 0.759 | 11600 nM | 0.617 | 1370 nM | 0.856 | 3450 nM | 0.558 | 93 nM | 0.985 | > 10200 nM | 0.918 | > 1280 nM
A253 (head and neck, adherent) | 0.645 | 4990 nM | 0.578 | 1040 nM | 0.95 | > 4000 nM | 0.789 | 438 nM | 0.988 | > 10200 nM | 0.911 | > 1280 nM
A388 (skin, adherent) | 0.651 | 5600 nM | 0.657 | 1880 nM | 0.78 | 1900 nM | 0.546 | 87.2 nM | 0.984 | > 10200 nM | 0.442 | 54.3 nM
ALL-PO (lymphoblastic leukaemia, suspension) | 0.533 | 2470 nM | 0.359 | 255 nM | 0.261 | 49.4 nM | 0.805 | 553 nM | 0.909 | > 10200 nM | 0.943 | > 1280 nM
ALL-SIL (T-cell leukaemia, suspension) | 0.57 | 3020 nM | 0.208 | 104 nM | 0.77 | 1320 nM | 0.721 | 244 nM | 0.963 | > 10200 nM | 0.025 | < 5 nM
AM-38 (glioma, semi-adherent) | 0.821 | 19100 nM | 0.845 | 7650 nM | 0.97 | > 4000 nM | 0.978 | > 1020 nM | 0.974 | > 10200 nM | 0.974 | > 1280 nM
AMO-1 (haematopoietic neoplasm, suspension) | 0.696 | 6460 nM | 0.38 | 314 nM | 0.954 | > 4000 nM | 0.688 | 198 nM | 0.856 | 6460 nM | 0.966 | > 1280 nM
BB49-HNC (head and neck, adherent) | 0.866 | > 32000 nM | 0.954 | > 10200 nM | 0.955 | > 4000 nM | 0.895 | > 1020 nM | 0.974 | > 10200 nM | 0.639 | 226 nM
BB65-RCC (kidney, adherent) | 0.564 | 3070 nM | 0.821 | 7130 nM | 0.675 | 834 nM | 0.824 | 737 nM | 0.983 | > 10200 nM | 0.479 | 69.6 nM
BE2-M17 (neuroblastoma, adherent) | 0.905 | > 32000 nM | 0.861 | 9070 nM | 0.905 | > 4000 nM | 0.771 | 404 nM | 0.985 | > 10200 nM | 0.899 | > 1280 nM
BV-173 (chronic myeloid leukaemia, suspension) | 0.652 | 4970 nM | 0.319 | 214 nM | 0.782 | 1470 nM | 0.729 | 261 nM | 0.965 | > 10200 nM | 0.067 | < 5 nM
CESS (acute myeloid leukaemia, suspension) | 0.729 | 7960 nM | 0.362 | 283 nM | 0.89 | 3450 nM | 0.655 | 161 nM | 0.919 | > 10200 nM | 0.989 | > 1280 nM
CGTH-W-1 (thyroid, adherent) | 0.753 | 10600 nM | 0.939 | > 10200 nM | 0.467 | 204 nM | 0.712 | 254 nM | 0.983 | > 10200 nM | 0.387 | 39.1 nM
COLO-684 (endometrium, suspension) | 0.755 | – | 0.518 | 721 nM | 0.93 | > 4000 nM | 0.544 | 85.7 nM | 0.985 | > 10200 nM | 0.947 | > 1280 nM
COLO-800 (melanoma, adherent) | 0.658 | 5410 nM | 0.636 | 1500 nM | 0.955 | > 4000 nM | 0.987 | > 1020 nM | 0.963 | > 10200 nM | 0.962 | > 1280 nM
COLO-824 (breast, adherent) | 0.809 | 17200 nM | 0.679 | 2040 nM | 0.954 | > 4000 nM | 0.929 | > 1020 nM | 0.952 | > 10200 nM | 0.988 | > 1280 nM
COR-L88 (small cell lung carcinoma, adherent) | 0.929 | > 32000 nM | 0.646 | 1760 nM | 0.842 | 3630 nM | 0.795 | 582 nM | 0.983 | > 10200 nM | 0.985 | > 1280 nM
CP66-MEL (melanoma, adherent) | 0.183 | 188 nM | 0.881 | > 10200 nM | 0.902 | > 4000 nM | 0.783 | 498 nM | 0.985 | > 10200 nM | 0.632 | –
CW-2 (large intestine, adherent) | 0.984 | > 32000 nM | 0.988 | > 10200 nM | 0.98 | > 4000 nM | 0.989 | > 1020 nM | 0.981 | > 10200 nM | 0.988 | > 1280 nM
D-283MED (medulloblastoma, adherent) | 0.598 | 3620 nM | 0.988 | > 10200 nM | 0.895 | > 4000 nM | 0.991 | > 1020 nM | 0.991 | > 10200 nM | 0.948 | > 1280 nM
D-502MG (glioma, adherent) | 0.502 | 2030 nM | 0.92 | > 10200 nM | 0.921 | > 4000 nM | 0.926 | > 1020 nM | 0.962 | > 10200 nM | 0.819 | > 1280 nM
DB (B-cell lymphoma, suspension) | 0.635 | 4970 nM | 0.308 | 171 nM | 0.875 | > 4000 nM | 0.761 | 408 nM | 0.875 | > 10200 nM | 0.964 | > 1280 nM

— the supplement of paper PMC4967469
